Laboratory results: PMC4294773
These are yes or no findings as the source states them, for the method shown. In cells and extracts the contact can be indirect. Some binding calls cover weakened binding; strength is not graded here.

By UniProt entry, the sequences of proteins in these tests, tags left out. Where a name states a change or a piece, a line headed by the entry shows the natural chain unless it says otherwise. Chains listed by the source or under a name are the forms on record and can include a tag or linker. Residues count along the entry.
UniProt O43516: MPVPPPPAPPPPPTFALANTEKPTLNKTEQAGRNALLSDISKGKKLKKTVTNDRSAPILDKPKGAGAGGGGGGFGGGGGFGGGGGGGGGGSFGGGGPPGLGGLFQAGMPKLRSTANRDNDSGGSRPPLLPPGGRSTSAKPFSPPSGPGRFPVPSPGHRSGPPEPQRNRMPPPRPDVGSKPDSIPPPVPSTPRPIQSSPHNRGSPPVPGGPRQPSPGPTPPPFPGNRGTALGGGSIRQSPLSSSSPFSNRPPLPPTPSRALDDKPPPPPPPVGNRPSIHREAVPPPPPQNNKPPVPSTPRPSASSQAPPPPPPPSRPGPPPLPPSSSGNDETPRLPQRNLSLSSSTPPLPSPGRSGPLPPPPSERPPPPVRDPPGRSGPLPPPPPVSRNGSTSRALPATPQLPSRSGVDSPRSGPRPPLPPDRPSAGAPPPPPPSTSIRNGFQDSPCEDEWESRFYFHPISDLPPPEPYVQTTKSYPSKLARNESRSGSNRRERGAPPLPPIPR
WIP(ΔWBD)–EGFP: residues 1-449 of O43516
WIP(Y455/468/475F)–EGFP^RES (O43516, form named): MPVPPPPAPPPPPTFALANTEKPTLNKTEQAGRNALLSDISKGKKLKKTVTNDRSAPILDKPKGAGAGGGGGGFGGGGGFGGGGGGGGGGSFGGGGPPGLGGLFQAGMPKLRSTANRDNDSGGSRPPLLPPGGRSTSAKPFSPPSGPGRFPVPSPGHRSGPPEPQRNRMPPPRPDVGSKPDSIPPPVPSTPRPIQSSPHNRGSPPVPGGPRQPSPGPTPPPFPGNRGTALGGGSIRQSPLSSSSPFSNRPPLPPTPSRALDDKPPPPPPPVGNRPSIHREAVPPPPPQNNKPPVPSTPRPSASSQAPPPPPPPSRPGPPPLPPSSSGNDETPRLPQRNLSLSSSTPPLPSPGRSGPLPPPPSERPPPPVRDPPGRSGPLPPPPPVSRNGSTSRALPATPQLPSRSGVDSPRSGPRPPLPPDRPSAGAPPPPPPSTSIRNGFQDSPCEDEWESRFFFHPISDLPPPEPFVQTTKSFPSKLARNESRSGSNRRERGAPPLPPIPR
WIP–EGFP, phosphomimetic variant of S488 (serine to aspartic acid) (O43516, form named): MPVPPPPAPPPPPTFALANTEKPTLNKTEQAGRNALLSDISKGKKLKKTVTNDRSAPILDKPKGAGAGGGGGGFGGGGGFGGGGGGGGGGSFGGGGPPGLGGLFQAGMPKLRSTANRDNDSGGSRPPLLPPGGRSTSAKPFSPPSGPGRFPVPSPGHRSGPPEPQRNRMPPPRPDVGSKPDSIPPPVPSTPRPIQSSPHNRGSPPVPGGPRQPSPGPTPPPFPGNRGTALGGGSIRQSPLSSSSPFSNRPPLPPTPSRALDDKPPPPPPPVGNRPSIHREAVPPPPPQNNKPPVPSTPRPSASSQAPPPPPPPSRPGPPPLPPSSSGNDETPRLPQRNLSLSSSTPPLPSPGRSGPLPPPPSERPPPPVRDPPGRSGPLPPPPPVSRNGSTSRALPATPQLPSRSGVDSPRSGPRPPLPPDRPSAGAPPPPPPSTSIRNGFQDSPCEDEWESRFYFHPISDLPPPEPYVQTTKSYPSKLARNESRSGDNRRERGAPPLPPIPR
WIP–EGFP, unphosphorylatable variant of S488 (serine to alanine) (O43516, form named): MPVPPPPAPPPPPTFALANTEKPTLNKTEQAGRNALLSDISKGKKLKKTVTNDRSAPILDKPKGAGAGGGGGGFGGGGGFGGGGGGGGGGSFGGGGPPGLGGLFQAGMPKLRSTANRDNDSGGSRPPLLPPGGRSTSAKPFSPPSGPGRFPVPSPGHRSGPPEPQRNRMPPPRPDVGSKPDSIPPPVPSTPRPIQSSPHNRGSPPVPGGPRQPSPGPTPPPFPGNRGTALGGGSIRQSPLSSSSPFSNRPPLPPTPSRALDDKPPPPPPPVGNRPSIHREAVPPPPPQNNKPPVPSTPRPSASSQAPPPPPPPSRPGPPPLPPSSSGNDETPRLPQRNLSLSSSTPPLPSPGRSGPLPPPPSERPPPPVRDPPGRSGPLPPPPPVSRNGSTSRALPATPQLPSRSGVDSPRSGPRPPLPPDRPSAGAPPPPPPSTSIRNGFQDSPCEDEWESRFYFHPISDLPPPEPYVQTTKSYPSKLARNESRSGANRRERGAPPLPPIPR
UniProt P42768: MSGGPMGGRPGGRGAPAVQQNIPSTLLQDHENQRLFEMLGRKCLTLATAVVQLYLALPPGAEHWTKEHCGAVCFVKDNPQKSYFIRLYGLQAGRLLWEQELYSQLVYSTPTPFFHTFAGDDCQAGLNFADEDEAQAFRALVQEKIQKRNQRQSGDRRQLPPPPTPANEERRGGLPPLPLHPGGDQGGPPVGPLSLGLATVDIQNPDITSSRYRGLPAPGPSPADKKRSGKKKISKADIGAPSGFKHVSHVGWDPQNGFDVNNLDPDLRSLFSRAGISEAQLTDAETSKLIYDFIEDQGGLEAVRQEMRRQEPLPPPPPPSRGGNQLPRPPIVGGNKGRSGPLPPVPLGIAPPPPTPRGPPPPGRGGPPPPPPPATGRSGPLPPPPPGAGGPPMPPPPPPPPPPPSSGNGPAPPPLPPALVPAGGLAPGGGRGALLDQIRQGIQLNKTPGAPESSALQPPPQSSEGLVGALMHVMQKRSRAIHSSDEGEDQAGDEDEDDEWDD

Assays:
Assay in all cases: co-IP; WIP–EGFP variants immunoprecipitated with anti-GFP antibody and Protein A/G agarose from lysates of TGFβ1-differentiated THP-1 cells (WIP-knockdown THP-1 cells for the knockdown-resistant variants); lysis buffer 150 mM NaCl, 1% Triton X-100, 50 mM Tris-HCl pH 7.5, 1 mM EDTA; washes with 500 mM NaCl; 4°C; bound endogenous WASP detected by western blot
[1] = molecular target: WIP(WT)–EGFP^RES (human) (UniProt O43516)
[2] = molecular target: WIP(Y455F)–EGFP (human) (UniProt O43516)
[3] = molecular target: WIP(Y455E/Y468E/Y475E)–EGFP (human) (UniProt O43516)
[4] = molecular target: WIP(ΔWBD)–EGFP (human) (UniProt O43516)
[5] = molecular target: WIP(Y455F/Y468F/Y475F)–EGFP (human) (UniProt O43516)
[6] = molecular target: WIP(Y475F)–EGFP (human) (UniProt O43516)
[7] = molecular target: WIP(Y468E)–EGFP (human) (UniProt O43516)
[8] = molecular target: WIP–EGFP, phosphomimetic variant of S488 (serine to aspartic acid) (human) (UniProt O43516)
[9] = molecular target: WIP(WT)–EGFP (human) (UniProt O43516)
[10] = molecular target: WIP–EGFP, unphosphorylatable variant of S488 (serine to alanine) (human) (UniProt O43516)
[11] = molecular target: WIP(Y468F)–EGFP (human) (UniProt O43516)
[12] = molecular target: WIP(Y455/468/475F)–EGFP^RES (human) (UniProt O43516)

binding [1]: binds
binding [2]: binds
binding [3]: no binding
binding [4]: no binding
binding [5]: binds
binding [6]: binds
binding [7]: binds weakly
binding [8]: binds
binding [9]: binds
binding [10]: binds
binding [11]: binds
binding [12]: binds
Substance: Wiskott–Aldrich syndrome protein (WASP) (from UniProt P42768 1-502)
